The campaign covered roughly 39,000 compounds. About 220 (0.56%) showed activity. Some of the results follow.
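Note: static incubation at 37 °C against the wild-type strain, values averaged over two biological replicates.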

In this experiment the test system is Escherichia coli K-12 BW25113. Briefly: relative growth (OD600 normalised to plate interquartile mean) (fraction); higher = less growth inhibition, active = 0.2 or less. Conditions: 50 µM; LB; incubation time: overnight (16-24 h).
Turning to `C[C@H](CO)N1C[C@H](C)[C@H](CN(C)C(=O)c2cnccn2)Oc2ncc(/C=C/c3ccccc3)cc2C1=O`, the relative growth is inactive: 0.952.
Next, `C[C@@H]1CN([C@H](C)CO)C(=O)c2cc(NC(=O)CCCN(C)C)ccc2O[C@H]1CN(C)S(=O)(=O)c1ccc(Cl)cc1`: inactive: 0.995.
Under `C[C@@H]1CN([C@@H](C)CO)C(=O)c2cccc(NC(=O)C3CC3)c2O[C@H]1CN(C)S(=O)(=O)c1ccccc1` stands inactive: 0.994; under `COCCN1CCN(C)C2(CCN(C(=O)c3csnn3)CC2)C1=O`, inactive: 0.933.
Next, `Cc1noc(C)c1S(=O)(=O)Nc1cccc2c1O[C@H](CN(C)C(=O)NC1CCCCC1)[C@H](C)CN([C@@H](C)CO)C2=O`: inactive: 1.01.
As to `C[C@@H]1CN([C@H](C)CO)C(=O)Cc2cc(NC(=O)Cc3ccccc3)ccc2O[C@@H]1CN(C)C(=O)Nc1ccc(C(F)(F)F)cc1`, the relative growth is inactive: 1.
Next, `Cc1ccc(-c2ccc3c(c2)O[C@@H](CN(C)Cc2cncnc2)[C@@H](C)CN([C@H](C)CO)S3(=O)=O)cc1`: inactive: 1.03; `Cc1noc(C)c1NC(=O)Nc1ccc2c(c1)CC(=O)N([C@@H](C)CO)C[C@H](C)[C@@H](CN(C)S(=O)(=O)c1cn(C)cn1)O2`: inactive: 1; `C[C@@H]1CN([C@H](C)CO)C(=O)CCCn2cc(nn2)CO[C@@H]1CN(C)S(=O)(=O)c1ccc(Oc2ccccc2)cc1`: inactive: 0.995.
Next, `C[C@H]1CN([C@@H](C)CO)S(=O)(=O)c2ccc(C#CC3CC3)cc2O[C@@H]1CN(C)C(=O)Cc1ccncc1`: inactive: 0.995; `Nc1ncnc2c1ncn2[C@@H]1O[C@H](COP(=O)(O)OP(=O)(O)OP(=O)(O)OP(=O)(O)OC[C@H]2O[C@@H](n3cnc4c(N)ncnc43)[C@H](O)[C@@H]2O)[C@@H](O)[C@H]1O`: inactive: 0.998; `CC(=O)OC[C@@H](OC(C)=O)[C@H](OC(C)=O)[C@H](OC(C)=O)[C@H](OC(C)=O)[C@@H](COC(C)=O)OC(C)=O`: inactive: 0.892.
Under `C(=N\c1ccccc1)/c1ccccc1` stands inactive: 0.988; under `CC(C)N(C)C(=O)c1cccc(NC(=O)c2ccncc2)c1OCCCN(C)Cc1ccc(Cl)cc1`, inactive: 1.01; under `Cc1ccc(S(=O)(=O)N(C)C[C@@H]2Oc3cc(C#Cc4ccncc4)ccc3S(=O)(=O)N([C@H](C)CO)C[C@@H]2C)cc1`, inactive: 1.
Consider `CC(C)NC(=O)N(C)C[C@H]1Oc2ccc(NC(=O)CCN3CCOCC3)cc2C(=O)N([C@@H](C)CO)C[C@H]1C`, for which the relative growth was inactive: 0.984.
Next, `C[C@@H]1CN([C@@H](C)CO)C(=O)c2cccc(NC(=O)c3nc4ccccc4s3)c2O[C@@H]1CN(C)S(C)(=O)=O`: inactive: 0.995.
Next, `C[C@@H]1CCCCO[C@H](CN(C)S(=O)(=O)c2ccccc2)[C@@H](C)CN([C@H](C)CO)C(=O)c2cc(NC(=O)NC3CCCCC3)ccc2O1`: inactive: 1.
Next, `CCC[C@@H](O)C#Cc1cnc2c(c1)C(=O)N([C@H](C)CO)C[C@H](C)[C@H](CN(C)S(=O)(=O)c1ccc(C#N)cc1)O2`: inactive: 0.986; `S=C1C=C(N2CCCCC2)C[C@H](c2ccc(Cl)cc2)S1`: inactive: 0.944.
Take `C[C@@H]1CCCCO[C@H](CN(C)C(=O)Nc2ccc(C(F)(F)F)cc2)[C@@H](C)CN([C@H](C)CO)C(=O)c2cc(NC(=O)Nc3cccc4ccccc34)ccc2O1`: the relative growth is inactive: 0.942.
Under `CC(C)C#Cc1cnc2c(c1)C(=O)N([C@H](C)CO)C[C@H](C)[C@@H](CN(C)S(=O)(=O)c1cn(C)cn1)O2` stands inactive: 1.01.
With `CC(C)(Sc1ccc(CCN(CCCCC2CCCCC2)C(=O)NC2CCCCC2)cc1)C(=O)O`, the relative growth is inactive: 0.893.
Under `COc1ccc(NC(=O)Nc2ccc3c(c2)CC(=O)N([C@@H](C)CO)C[C@@H](C)[C@H](CN(C)CC2CCCCC2)O3)cc1` stands inactive: 0.996.
Next, `O=C(C[C@H]1CC[C@H]2[C@@H](COC[C@@H](O)CN2S(=O)(=O)c2ccc(Cl)cc2)O1)N[C@@H]1CCN(Cc2ccccc2)C1`: inactive: 0.984; `Cc1ccc(S(=O)(=O)N(C)C[C@@H]2Oc3ccc(NC(=O)c4ccncc4)cc3C(=O)N([C@@H](C)CO)C[C@H]2C)cc1`: inactive: 1.02.
Next, `CCC(=O)O.[NaH]`: inactive: 0.978.
Take `COc1ccc(CN(C)C[C@@H]2OCCCC[C@@H](C)Oc3ccc(NC(=O)c4ccccc4)cc3C(=O)N([C@@H](C)CO)C[C@H]2C)cc1`: the relative growth was inactive: 1.01.
Regarding `C[C@H](CO)N1C[C@H](C)[C@H](CN(C)S(=O)(=O)c2cn(C)cn2)Oc2ncc(-c3cc4ccccc4o3)cc2C1=O`, the relative growth is inactive: 1.03.
Under `Cc1noc(C)c1NC(=O)Nc1ccc2c(c1)C(=O)N([C@@H](C)CO)C[C@@H](C)[C@@H](CN(C)C(=O)Nc1ccccc1)OCCCC[C@@H](C)O2` stands inactive: 0.998; under `C[C@@H]1CN([C@H](C)CO)C(=O)c2cc(C#Cc3ccccn3)cnc2O[C@@H]1CN(C)C(=O)CCN1CCCCC1`, inactive: 0.991.
For the molecule `C[C@H]1CN([C@@H](C)CO)C(=O)c2cc(NC(=O)Cn3cnnn3)ccc2O[C@@H]1CN(C)S(=O)(=O)c1ccc(Cl)cc1`, the relative growth was inactive: 1.02.
Under `C[C@H]1CN([C@@H](C)CO)C(=O)c2cc(NC(=O)Nc3ccc(F)cc3)ccc2O[C@H]1CN(C)S(C)(=O)=O` stands inactive: 1.02.
As for `C[C@@H]1CCCCO[C@@H](CN(C)C(=O)C2CCCCC2)[C@@H](C)CN([C@H](C)CO)C(=O)c2cc(NC(=O)c3ccccc3)ccc2O1`, the relative growth is inactive: 0.982.
Next, `C[C@@H]1CN([C@H](C)CO)C(=O)c2cccc(NC(=O)NC3CCCCC3)c2O[C@@H]1CN(C)C(=O)Nc1ccc(C(F)(F)F)cc1`: inactive: 0.878.
Next, `C[C@H](CO)N1C[C@H](C)[C@H](CN(C)Cc2ccc3c(c2)OCO3)OCCCC[C@H](C)Oc2ccc(NC(=O)c3ccccc3)cc2C1=O`: inactive: 1.03.
Under `CCC[C@@H](O)C#Cc1cnc2c(c1)C(=O)N([C@H](C)CO)C[C@H](C)[C@H](CN(C)C(=O)Nc1ccccc1)O2` stands inactive: 1.01; under `O=C(N[C@H]1CC[C@H](CCNS(=O)(=O)c2ccc(F)cc2)O[C@@H]1CO)C1CC1`, inactive: 1.
On to `Nc1ccc(F)cn1`, for which the relative growth is inactive: 0.993.
Under `CCCC#Cc1cnc2c(c1)C(=O)N([C@@H](C)CO)C[C@@H](C)[C@@H](CN(C)C(=O)c1ccc3c(c1)OCO3)O2` stands inactive: 0.992; under `C[C@@H]1O[C@@H](O[C@@H]2CC[C@@]3(C)[C@@H](CC[C@]4(C)[C@@H]3CC=C3[C@@H]5CC(C)(C)CC[C@]5(C(=O)O[C@@H]5O[C@H](CO[C@@H]6O[C@H](CO)[C@@H](O)[C@H](O)[C@H]6O)[C@@H](O)[C@H](O)[C@H]5O)CC[C@]34C)[C@]2(C)CO)[C@H](O)[C@H](O[C@@H]2OC[C@@H](O)[C@H](O)[C@H]2O)[C@H]1O`, inactive: 0.992.
Under `NCc1ccc(C(N)=O)cc1` stands inactive: 1.01; under `CNC(=O)[C@H]1O[C@@H](n2cnc3c(NCc4cccc(I)c4)ncnc32)[C@H](O)[C@@H]1O`, inactive: 0.991; under `C[C@@H]1CN([C@H](C)CO)C(=O)c2cccc(NC(=O)Nc3cccc4ccccc34)c2O[C@H]1CN(C)C(=O)Nc1cccc2ccccc12`, inactive: 1.04.
Under `Cc1noc(C)c1NC(=O)N(C)C[C@@H]1OCCCC[C@@H](C)Oc2ccc(NC(=O)Nc3ccc4c(c3)OCO4)cc2C(=O)N([C@H](C)CO)C[C@@H]1C` stands inactive: 1.04; under `O=C(C[C@@H]1CC[C@H]2[C@@H](COC[C@H](O)CN2C(=O)c2ccccc2F)O1)N1CCN(c2ccccc2)CC1`, inactive: 0.976.
As to `C[C@@H]1CN([C@@H](C)CO)S(=O)(=O)c2ccc(C#CC3(O)CCCC3)cc2O[C@H]1CN(C)C(=O)Nc1cccc(F)c1`, the relative growth was inactive: 1.02.
Under `C[C@@H]1CCCCO[C@@H](CN(C)Cc2ccc3c(c2)OCO3)[C@@H](C)CN([C@@H](C)CO)C(=O)c2cc(NC(=O)Nc3ccccc3)ccc2O1` stands inactive: 1.05; under `COc1ccc(CN(C)C[C@@H]2OCCCC[C@H](C)Oc3ccc(NS(=O)(=O)c4ccc(C)cc4)cc3C(=O)N([C@H](C)CO)C[C@@H]2C)cc1`, inactive: 1.
Under `CC(C)NC(=O)N(C)C[C@H]1Oc2c(NS(=O)(=O)c3ccccc3)cccc2C(=O)N([C@H](C)CO)C[C@@H]1C` stands inactive: 1; under `C[C@H]1CN([C@@H](C)CO)C(=O)c2cccc(NC(=O)Nc3ccc(F)cc3)c2O[C@@H]1CN(C)S(C)(=O)=O`, inactive: 1; under `C[C@H](CO)N1C[C@H](C)[C@@H](CN(C)Cc2ccc3c(c2)OCO3)OCCCC[C@H](C)Oc2ccc(NS(=O)(=O)c3cccs3)cc2C1=O`, inactive: 0.979.
Under `C[C@@H]1CN([C@@H](C)CO)C(=O)CCCn2cc(nn2)CO[C@H]1CN(C)C(=O)Nc1ccc2c(c1)OCCO2` stands inactive: 0.995; under `Cc1ccc(Oc2ccccc2)c(NC(=O)c2ccccc2)c1`, inactive: 1.01; under `COc1ccc(NC(=O)Nc2ccc3c(c2)C(=O)N([C@H](C)CO)C[C@H](C)[C@H](CN(C)C(=O)Nc2ccc(F)cc2)OCCCC[C@@H](C)O3)cc1`, inactive: 1.02.
For the molecule `O=C(O)Cn1cc2c(n1)CCCC2`, the relative growth was inactive: 1.01.
Next, `OC[C@H]1COc2ccccc2O1`: inactive: 0.965; `O=C(O)CNC(=O)c1[nH]nc2ccccc12`: inactive: 0.993; `C[C@H](CO)N1C[C@H](C)[C@H](CN(C)C(=O)Nc2ccc(F)cc2)Oc2ccc(NC(=O)CCCCCC(=O)Nc3ccccc3N)cc2CC1=O`: inactive: 0.996.
Next, `C[C@@H]1CN([C@H](C)CO)C(=O)c2cc(NC(=O)CCN3CCOCC3)ccc2O[C@H]1CN(C)S(=O)(=O)c1cccs1`: inactive: 1.01.
